# Over roughly 13,000 compounds, “IFI” has its median near 4; the highest 2% begin near 17. The list shows a part of the results.
# Experiment: GSK_TCMDC: Inhibition Frequency Index (IFI). The number of non-kinase HTS assays where a compound showed > 50 % inhibition, expressed as a percentage of the number of such assays in which the compound was tested (-0 is zero)
# Format: functional
row,Compound,IFI
1,Cc1nc2ccc([N+](=O)[O-])cc2c(=O)n1OCc1ccccc1,1.43%
2,NCC1CCCN1Cc1ccc(-c2cccc(-c3nc4cc(C(F)(F)F)ccc4[nH]3)c2)cc1 (stereo unspecified),12.8%
3,O=c1cc(NCCCNCc2ccc(C(F)(F)F)cc2F)[nH]c2ccccc12,3.62%
4,Nc1nc2c(ncn2COC(COCc2ccccc2)COCc2ccccc2)c(=O)[nH]1.Nc1nc2ncn(COC(COCc3ccccc3)COCc3ccccc3)c2c(=O)[nH]1,-0%
5,Cc1cccc2nc(-c3cccc(-c4ccc(NC(=O)C5CCN(C)CC5)cc4)c3)[nH]c12,3.51%
6,CCCNc1nc(Nc2ccccc2C)nc2ccccc12,7.04%
7,CN(C)CCN(C)C(=O)c1cc(-c2ccncc2)c(-c2ccc(Cl)c(O)c2)o1,-0%
8,Oc1ccccc1CCNC1CCc2ccccc2C1 (stereo unspecified),-0%
9,CC(c1cccc(Nc2nccc(-c3c(-c4cccc(NC(=O)c5c(F)cccc5F)c4)nn4ccccc34)n2)c1)S(C)(=O)=O (stereo unspecified),6.31%
10,CC(c1cccc(S(=O)(=O)NCc2cccc(C(F)(F)F)c2)c1)N1CCC(N2CCCCC2)CC1 (stereo unspecified),7.14%
11,COc1cc(CN/C(=N/c2ccc(-c3ccccc3)cc2)Nc2ccc(C#N)cc2O)cc(OC)c1,1.46%
12,CCCCCCCC1CC(CC(=O)Nc2ccnc3ccc(OC)cc23)CN1C(=O)OC(C)(C)C (stereo unspecified),7.21%
13,O=C(/C=C/c1ccc(Cl)c(Cl)c1)NCCCCCN1CCCC(c2c[nH]c3ccccc23)C1 (stereo unspecified),5.8%
14,COc1ccc2c(NN=Cc3cccnc3)ccnc2c1,-0%
15,CC1CCCC(Nc2noc(-c3sccc3Br)n2)C1 (stereo unspecified),7.69%
16,CCN(CC(C)O)C(=O)c1ccc(-c2cccc(-c3nc4cccc(C)c4[nH]3)c2)cc1 (stereo unspecified),2.88%
17,COc1cc(Cc2cnc(N)nc2N)cc(OCCCCc2ccc([N+](=O)[O-])cc2)c1OC,2.92%
18,Cc1ccccc1CCNC(=O)c1cnc(N2CCN(c3ccncc3)CC2)c(Cl)c1,20.8%
19,CCCN(Cc1ccc(OCC)cc1)Cc1cc(=O)c2cc(Cl)ccc2[nH]1,10.6%
20,COc1ccc(NC(=O)[C@H](Cc2ccccc2)Nc2cc(C)nc(NCCc3cccs3)n2)cc1,9.52%
21,Cc1cccc(OCCCCON2C(=N)N=C(N)NC2(C)C)c1C,3.68%
22,COc1ccc(Cl)cc1N1CCN(CCCNC(=O)c2ccc(-c3nc4cc(Cl)c(Cl)cc4[nH]3)c(C)c2)CC1,0.74%
23,COc1ccc(Nc2nc(N)c3cc(OC)c(OC)cc3n2)cc1OC,-0%

row,Compound,IFI
1,CCC[C@@H]1CCN[C@H]([C@H](O)c2ccnc3ccc(OC)cc23)C1,0.81%
2,CC(O)CNc1nc2ccccc2n1CC(=O)Nc1cccc(C(=O)Nc2cccc(C(F)(F)F)c2)c1 (stereo unspecified),0.93%
3,Cc1ccc2[nH]c(-c3ccccc3N)cc2c1,4.79%
4,Cc1cccc2nc(-c3ccc(-c4cccc(NC(=O)c5cnccc5C(F)(F)F)c4)cc3)[nH]c12,8.11%
5,Oc1c(C(Nc2nc3ccccc3s2)c2ccc(OC(F)F)cc2)ccc2cccnc12 (stereo unspecified),9.4%
6,Cc1cccc(Nc2nc3nonc3nc2Nc2cccc(Cl)c2Cl)c1C,16.4%
7,FC(F)(F)c1ccc(N2CCCN(Cc3cccc(-c4ccccc4CNCc4ccc5c(c4)OCO5)c3)CC2)nc1,11.7%
8,Nc1c2c(nc3ccc(NC(=O)CCCCCCc4ccccc4)cc13)CCCC2,15.8%
9,O=C(Nc1cccc(CN2CCCN(CCc3ccccc3)CC2)c1)c1ccc(Cl)c(Cl)c1,3.36%
10,O=C(NCc1cccc(C(F)(F)F)c1)[C@@H]1CCCN1C(=O)c1ccc(O)c(-c2ccc(Cl)c(Cl)c2)c1,5.19%
11,CCNc1cc(C)nc(Nc2ccc(F)cc2)n1,4.35%
12,Cc1ccc(O)cc1Nc1ccnc2cc(-c3csc(CN(C)CCN(C)C)n3)ccc12,4.96%
13,O=C(c1cc(-c2ccco2)n[nH]1)N1CCN(S(=O)(=O)c2ccc(Br)cc2)CC1,0%
14,COc1cc(C(C)C)nc2ccc(NC(=O)c3ccc(C(=O)Nc4ccc5nc(C(C)C)cc(OC)c5c4)cc3)cc12,3.03%
15,CC(=O)N(C)C1CCN(Cc2ccc(-c3ccc(-c4nc5cc(F)ccc5[nH]4)s3)cc2)C1 (stereo unspecified),8.33%
16,COc1cccc(-c2csc(C(=O)NCC3CCN(Cc4ccc(C(C)(C)C)cc4)C3)c2)c1 (stereo unspecified),12.2%
17,CC(=O)Oc1c(C2C=CCCC2)c(OC(C)=O)c2ccccc2c1OC(C)=O (stereo unspecified),4%
18,O=S1(=O)C=C(c2ccccc2)CC1,2.21%
19,COc1cccc(NC(=O)c2cc(Br)cc(N3CCN(c4ccncc4)CC3)c2)c1,12.5%
20,O=C(/C=C/c1ccc(Cl)cc1)NCCCCCN1CCC(C(=O)Nc2ccc(Cl)cc2)CC1,10.6%
21,CCOc1ccc2[nH]c(C)cc(=NN=Cc3ccc(Cl)cc3)c2c1,2.29%
22,N[C@@H](Cc1cc(I)c(Oc2ccc(O)c(Cl)c2)c(I)c1)C(=O)O,2.26%
23,O=C(NCCCCN1CCC(c2ccc3c(c2OCc2ccccn2)CCCC3)CC1)c1ccc(NC(=O)c2ccc(Cl)cc2)cc1,9.73%

row,Compound,IFI
1,CCCCC(CC)CN1C(=O)C(c2ccccc2)(c2ccccc2)N=C1N (stereo unspecified),16.3%
2,c1cc(CNCCN2CCNCC2)cc(-c2ccc(-c3nc4ccccc4[nH]3)cc2)c1,3.92%
3,CCN(CC)CCN(Cc1ccc(-c2ccc(C(F)(F)F)cc2)cc1)C(=O)Cn1cc(Cc2cnn(C)c2)c(=O)n2nc(-c3ccccc3)cc12,6.57%
4,CN1CCC(NCc2ccc(-c3cnc(NCc4ccccc4)nc3)cc2)CC1,8.45%
5,COc1ccc2[nH]ccc(=NN=Cc3cccnc3)c2c1,0.72%
6,O=C(NCCc1cccc(F)c1)c1cc(Br)cc(N2CCN(c3ccncc3)CC2)c1,8.33%
7,CCCc1ccc(NC(=O)c2ccc(CN3CCCN(Cc4ccc(OC)cc4)CC3)cc2)cc1,14.4%
8,COc1ccc2nc(-c3ccccc3)cc(N/N=C/c3ccc([N+](=O)[O-])cc3)c2c1,5.93%
9,Cc1ccnc(Nc2nc(-c3ccccn3)cs2)c1,7.97%
10,CN1CCN(Cc2cccc(-c3ccc4c(Nc5ccc(Oc6cccnc6)cc5)ccnc4c3)c2)CC1,6.02%
11,O=C(Nc1ccc(Cl)c(Cl)c1)Nc1ccccc1N1CCNCC1,15%
12,CN1CCC(N(Cc2ccc(N3CCN(Cc4c[nH]c5ccc(Cl)cc45)CC3)nc2)C2CC2)CC1,6.45%
13,Clc1cc(Br)ccc1-c1ccc(CNCC2CCNCC2)o1,26.3%
14,CCOC(=O)c1ccc(NC(=O)Nc2ccc(-c3ccc(-c4nc5ccccc5[nH]4)cc3)cc2)cc1,2%
15,COc1cc2c(cc1N1CCN(C)CC1)N(C(=O)Nc1ccc(-c3ccncc3)c(Cl)c1Cl)CC2,3.62%
16,CCCCCN1CCCC(NS(=O)(=O)c2cccc(C(=O)Nc3cccc(C(F)(F)F)c3)c2)C1 (stereo unspecified),6.12%
17,CCOC(=O)c1ccc(OCc2ccc(-c3ccccc3)cc2)cc1,0%
18,Nc1cccc(CNCc2ccc(-c3ccc(-c4nc5cc(C(F)(F)F)ccc5[nH]4)s3)cc2)c1,16.5%
19,CCCCC(CC)C(=O)C(NC(=O)[C@H](CSC(c1ccccc1)(c1ccccc1)c1ccccc1)NC(=O)OC(C)(C)C)C(=O)OC (stereo partly specified),0.92%
20,N=C(N)c1cc(Cl)cc(NC(=O)Nc2cc(Cl)cc(C(=N)N)c2)c1,2.16%
21,CN1CCC(C(=O)Nc2cccc(-c3ccc(-c4nc5cc(C(F)(F)F)ccc5[nH]4)s3)c2)CC1,8.7%
22,OCc1c(Cl)cc(Cl)cc1CNCCCNc1nc2ccccc2[nH]1,2.19%
23,NS(=O)(=O)Cc1cccc(-c2ccnc3ccc(-c4cccc(S(N)(=O)=O)c4)cc23)c1,-0%

row,Compound,IFI
1,COc1cc2nc(N3CCC(CNC(=O)c4ccc(-c5ccc(C(F)(F)F)cc5)cc4)CC3)nc(N)c2cc1OC,8.41%
2,CCNc1cc(C(=O)N[C@@H](Cc2ccccc2)[C@H](O)CNC2CCCC2)cc(N2CCCC2=O)c1,-0%
3,CN1CCC(Oc2ccc(NC(=O)c3ccc4c(=O)n(Cc5ccccc5)cnc4c3)cc2Cl)CC1,6.8%
4,O=C(Nc1ccc2nc3n(c(=O)c2c1)CCCCC3)C(=O)N1CCC(Cc2ccccc2)CC1,-0%
5,COc1cc2nc(Nc3ccc4c(ccn4Cc4ccccc4)c3)nc(Nc3ccc4c(ccn4Cc4ccccc4)c3)c2cc1OC,4.41%
6,COc1ccccc1C(C)NCC(=O)Nc1cc(C(F)(F)F)ccc1Cl (stereo unspecified),2.27%
7,NC(=O)c1sc(-n2cnc3ccccc32)cc1OCc1ccccc1[N+](=O)[O-],3.1%
8,CCOc1c(Br)cc(Br)cc1CNCCCCNc1nc2ccccc2[nH]1,7.25%
9,CS(=O)(=O)c1ccc(CNCc2ccc(-c3ccc(-c4nc5cc(C(F)(F)F)ccc5[nH]4)s3)cc2)cc1,9.8%
10,COc1ccc2c(NN=Cc3cccc(C)n3)ccnc2c1,-0%
11,O=C(NC1CCCCC1)C(c1cccs1)N(CCc1ccccc1)C(=O)c1ccco1 (stereo unspecified),2.8%
12,NC1=NC2(CCCCC2)N(OCCCCCCC2CCCCC2)C(N)=N1,27.6%
13,CC(C)(C)c1ccc(-c2ccccc2CNC(=O)c2cccc(O)c2)cc1,1.55%
14,Cc1c2c(nn1-c1ccccc1)C(c1ccccc1)N(c1ccccc1)C2=O (stereo unspecified),1.53%
15,Cn1nccc1C(=O)NCCNCc1ccc(-c2ccc(-c3nc4cc(C(F)(F)F)ccc4[nH]3)s2)cc1,9.9%
16,O=C(Nc1ccc(N2CCN(C(=O)/C=C/c3ccccc3)CC2)c(Cl)c1)c1ccc([N+](=O)[O-])o1,13.9%
17,COc1ccccc1/C=C/C(=O)NC1CCC(CCN2CCc3ccc(-c4cc(C)no4)cc3CC2)CC1 (stereo unspecified),3.88%
18,NC1CCN(c2nc(NCCCc3ccc(O)cc3)nc(NCc3cccc4ccccc34)n2)CC1,15.6%
19,COc1ccc(NC2=C(c3ccccc3)C(=O)c3ccccc32)cn1,-0%
20,O=C(NC1CCN(Cc2ccccc2)CC1)c1ccc(CNC2CCN(Cc3ccccc3)CC2)cc1,-0%
21,Cc1cc(=NN=Cc2ccccn2)c2cc(C(F)(F)F)ccc2[nH]1,0%
22,Cc1cc(C(=O)Nc2ccc3c(c2)CCN3C2CCN(Cc3ccc4nsnc4c3)C2)no1 (stereo unspecified),-0%
